Assay results taken from the supplement of paper PMC12217912.
This is one part of the list. The full chains were built here from the parent and the listed change. Inactive controls read about 0.05.

B1: TEV protease; numbered along this chain (parent)
chain: MGESLFKGPRDYNPISSSICHLTNESDGHTTSLYGIGFGPFIITNKHLFRRNNGTLVVQSLHGVFKVKDTTTLQQHLVDGRDMIIIRMPKDFPPFPQKLKFREPQREERICLVTTNFQTKSMSSMVSDTSCTFPSGDGIFWKHWIQTKDGQCGSPLVSTRDGFIVGIHSASNFTNTNNYFTSVPKNFMELLTNQEAQQWVSGWRLNADSVLWGGHKVFMVKPEEPFQPVKEATQL

Variants of: B1
Assay: raw area under fraction-flipped curve 0-4 h after induction (AUC4h, not background-subtracted), DNA-recorder readout of cleavage of the substrate (dimensionless); higher = more cleavage of the substrate by the protease variant
Details: temperature: 34 °C; time window: 0-4 h after rhamnose induction
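Also: Bxb1 expression induced with 0.2% (w/v) L-rhamnose at OD600 near 0.5, cultures sampled hourly, flipped fraction per protease–substrate barcode pair counted by paired-end Illumina sequencing.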

Row | Variant | area with substrate ENLYFQC | area with substrate ENLYFQE | area with substrate ENLYFQG | area with substrate ENLYFQI | area with substrate ENLYFQK | area with substrate ENLYFQL | area with substrate ENLYFQM | area with substrate ENLYFQN | area with substrate ENLYFQP | area with substrate ENLYFQR | area with substrate ENLYFQS | area with substrate ENLYFQY | area with substrate ENLYFQT | area with substrate ENLYFQV | area with substrate ENLYFQH | area with substrate ENLYFQW | area with substrate ENLYFQD | area with substrate ENLYFQQ | area with substrate ENLYFQF
1 | D208Q | 0.0795 | 0.0711 | 0.0722 | 0.0594 | 0.0636 | 0.058 | 0.073 | 0.0755 | 0.0405 | 0.0706 | 0.0784 | 0.0629 |  |  |  |  |  |  | 
2 | D208S | 0.0898 |  | 0.101 | 0.0586 | 0.0714 |  |  | 0.0673 | 0.0483 |  | 0.0984 |  | 0.0591 | 0.0881 |  |  |  |  | 
3 | D208V | 0.0537 |  |  |  | 0.0748 | 0.0612 |  | 0.067 |  | 0.0679 | 0.0678 | 0.0484 |  | 0.0515 | 0.0675 | 0.0513 |  |  | 
4 | K216F | 0.0894 |  | 0.0857 | 0.0473 | 0.0658 | 0.058 | 0.075 | 0.0581 |  |  | 0.0829 |  | 0.0647 |  | 0.0702 |  | 0.059 |  | 
5 | K216G | 0.0683 |  | 0.0628 | 0.0549 | 0.0607 | 0.0812 | 0.0686 | 0.0467 |  | 0.0548 | 0.0694 | 0.0344 | 0.0483 | 0.0377 | 0.056 | 0.0543 | 0.0534 | 0.0274 | 
6 | K216S | 0.0986 |  |  |  |  | 0.0467 | 0.0711 |  |  |  | 0.095 |  |  | 0.07 |  |  | 0.0702 |  | 
7 | E224A | 0.0945 |  | 0.0889 | 0.064 | 0.0649 | 0.0527 | 0.0764 | 0.0831 |  | 0.057 | 0.092 | 0.0687 | 0.045 | 0.0604 | 0.0619 | 0.0564 | 0.0689 | 0.0643 | 0.0626
8 | E224H | 0.0983 | 0.0496 | 0.0561 | 0.0552 | 0.0644 | 0.0654 | 0.0904 | 0.0721 | 0.0484 | 0.0448 | 0.0974 | 0.0906 | 0.0697 |  |  | 0.0679 |  | 0.0373 | 
9 | E224Y | 0.0972 |  |  | 0.0374 | 0.0659 | 0.0461 |  | 0.069 | 0.0234 |  | 0.0904 |  | 0.0662 | 0.054 | 0.0666 | 0.0601 | 0.0795 |  | 0.0904
10 | A232N | 0.107 |  |  | 0.0741 | 0.0716 | 0.0405 | 0.131 | 0.0574 | 0.0495 |  | 0.11 |  | 0.0469 | 0.0587 | 0.105 | 0.0692 | 0.0929 |  | 
11 | G8P |  |  | 0.103 |  | 0.0844 | 0.0738 |  | 0.0781 | 0.0507 | 0.0316 | 0.116 | 0.0777 | 0.0477 | 0.0794 | 0.0998 |  | 0.0748 |  | 
12 | P40T |  |  | 0.119 | 0.0506 | 0.0613 | 0.0534 |  | 0.082 | 0.0622 | 0.0531 | 0.106 | 0.0809 | 0.0744 |  | 0.0829 | 0.0725 | 0.0815 |  | 
13 | T72C |  |  |  |  | 0.0604 | 0.0688 | 0.087 |  | 0.0509 | 0.0588 | 0.0982 |  | 0.0694 |  | 0.076 |  | 0.0958 |  | 
14 | T72N |  |  | 0.102 |  |  | 0.0561 | 0.0802 | 0.0721 | 0.0398 | 0.0636 | 0.1 |  | 0.0742 |  |  | 0.0742 | 0.0688 |  | 
